From ChEMBL document CHEMBL4888484, “Replenishing the malaria drug discovery pipeline: Screening and hit evaluation of the MMV Hit Generation Library 1 (HGL1) against asexual blood stage Plasmodium falciparum ,using a nano luciferase reporter read-out” (2022)
Among all 150,000 compounds or so, about 540 (0.36%) showed an effect of 50% or more. Some of the results follow.

tested on: Plasmodium falciparum; assay: Primary screen in NF54 nanoGlo assay, in single point, at 2uM, 72h; a lower Z score goes with more inhibition; type: functional, Erythrocyte; conditions: timepoint 72 hour

| Compound | % Inhibition [%] | Z score |
| --- | --- | --- |
| CCN1CCN(C[C@@H](C)CNC(=O)c2cc(C)nc3c2c(=O)[nH]n3C)CC1 | -5 | 0.96 |
| O=C1C[C@H](Cn2ncc3ncccc32)CN1 | -14 | 1.44 |
| CCn1cnnc1C[C@H]1CCN(C(=O)c2ccc3ccccc3n2)C1 | -15 | 2.64 |
| CC1(C(=O)Nc2n[nH]c3cc(F)ccc23)CC2CCC1O2 (stereo not drawn) | -7 | 1.08 |
| Cn1ccnc(N2CCC(=C3CC3)CC2)c1=O | 0 | 0.05 |
| CC(C)C(CO)NC(=O)C1CC(=O)N(Cc2ccc3c(c2)OCO3)C1 (stereo not drawn) | 0 | 0 |
| CN1CC[C@H](NC(=O)Nc2ccc(N3CCOCC3)nc2)C1 | -13 | 2.43 |
| CC1CCCN(C(=O)c2ccc(C3(C)NC(=O)NC3=O)cc2)C1 (stereo not drawn) | 30 | -3.35 |
| Fc1ccc(-c2nc(-c3ccc4nncn4c3)no2)cc1F | -16 | 2.78 |
| COc1ccc(C(=O)Nc2ccc(-c3c(C4CC4)nn(-c4cccc(F)c4)c3OC(C)=O)cc2)cc1 | -13 | 1.42 |
| CC(C)n1ncc(C(=O)NC23CCN(CC2)C3)c1Br | -11 | 1.15 |
| CC(=O)N[C@@H]1C[C@H](CC(C)C)O[C@H](c2c[nH]nc2C2CCCCC2)C1 | -12 | 1.14 |
| Cc1cc(NC(=O)CC[C@H]2CCCO2)n(C)n1 | 0 | -0.05 |
| CC1CNCCN1C(=O)CCC1NC(=O)N(c2ccc(Cl)c(Cl)c2)C1=O (stereo not drawn) | -7 | 1.4 |
| COc1ccc([C@@H]2CCCN2C(=O)c2ccn(C)c(=O)c2)cc1OC | -2 | 0.43 |
| COC(=O)Nc1ccc(NCc2c(C)nn(C)c2C)cc1F | -15 | 1.73 |
| Cc1noc(C)c1S(=O)(=O)NCC1(N(C)C)CCCC1 | -1 | 0.28 |
| CN1CCC2CCN(C(=O)NCc3ccccc3OC3CCC3)C2C1 (stereo not drawn) | 4 | -0.6 |
| CC(CCNS(=O)(=O)c1ccccc1)NC(=O)C1CCCOC1 (stereo not drawn) | -7 | 1.38 |
| COc1cccc(Nc2ccc(N3C(=O)N[C@@](C)(CCF)C3=O)nc2)c1 | -2 | 0.37 |
| COc1cc(NC(=O)N2CCC[C@H](c3nc(-c4ccccc4)c[nH]3)C2)cc(OC)c1 | -3 | 0.46 |

| Compound | % Inhibition [%] | Z score |
| --- | --- | --- |
| Cc1nc(-c2sccc2S(=O)(=O)N2CCCC2)n(CCO)n1 | 4 | -0.49 |
| COc1ccc(C(=O)N2CCC3(CC2)OC[C@@H](C(=O)NCc2ccccc2)N3C(=O)c2ccccc2)cc1 | 12 | -1.8 |
| OC1CN(c2ccc(-c3nc(-c4ccccc4F)no3)cn2)C1 | -18 | 2.78 |
| COC(=O)CN1C(=O)C2(CCN(C(=O)c3cscn3)CC2)Nc2ccccc21 | 3 | -0.4 |
| O=C(NCCc1ccc(-c2ccsc2)s1)C1CCOCC1 | 2 | -0.34 |
| CS(=O)(=O)N1CCC[C@H](c2nnc(-c3ccsc3)o2)C1 | -18 | 2.04 |
| COc1cc(Cl)ccc1C(=O)N1CCC(c2nc(CNC(C)=O)cs2)CC1 | -9 | 1.08 |
| Cc1cc(S(=O)(=O)NCCN2CC3CCC(C2)O3)sc1Cl | -2 | 0.34 |
| CC(C)N(C)C(=O)Nc1ccncc1F | 0 | -0.02 |
| O=C(OC1CCN(C(=O)c2ccccc2F)CC1)c1cscn1 | 1 | -0.1 |
| O=C1C2C(C(=O)N1c1ccc(Oc3cccc4ccccc34)cc1)C1(Br)c3ccccc3C2(Br)c2ccccc21 (stereo not drawn) | -6 | 0.69 |
| O=C1CCc2cc(S(=O)(=O)N3CCn4nccc4C3)ccc2N1 | -11 | 1.65 |
| CC(C)Cc1noc(CNC(=O)NCc2ccco2)n1 | 5 | -0.65 |
| COc1cc(OC)cc(C2C(S(=O)(=O)NC3CCCCC3)CON2C)c1 (stereo not drawn) | 4 | -0.77 |
| C[C@@H](c1ccon1)N(C)Cc1cnc2c(-c3ccccc3)cnn2c1 | 7 | -0.99 |
| O=S(=O)(c1cc(F)ccc1NCCN1CC=CCC1)C(F)(F)F | 5 | -0.94 |
| O=C(N[C@H]1CC12CCCCC2)C1CCCC1 | -12 | 2.02 |
| Cc1ccc(S(=O)(=O)NCc2cccc(C(=O)N3CCCC3)c2)s1 | -37 | 4.28 |
| O=C(NCCc1nccs1)N[C@H]1CCCC[C@H]1CC(F)(F)F | -8 | 1.17 |
| CCc1nn2c(c1-c1ccc(C)c(S(=O)(=O)N3CCc4ccccc4C3)c1)NC(=O)CCC2=O | -8 | 0.99 |
| CC#CCN(C)C(=O)Nc1ccc(F)cn1 | -4 | 0.49 |

| Compound | % Inhibition [%] | Z score |
| --- | --- | --- |
| O[C@H]1[C@H](n2cc(-c3ccccc3F)nn2)c2ccccc2C12CCNCC2 | -3 | 0.69 |
| NC(=O)C1CCC(NC(=O)CC2CC2)CC1 (stereo not drawn) | 0 | 0.04 |
| C[C@@H](CN1CC(c2ccccc2)(c2ccccc2)CCC1=O)N1CCN(C)CC1 | -5 | 1.06 |
| CNC(=O)CN1c2ccccc2C(=O)N(C)[C@@H]1c1ccsc1 | 5 | -0.96 |
| O=C(Cc1ncccc1F)N1CC2(CCC2)[C@@H]1C1CC1 | -11 | 1.25 |
| Cc1ccc(Oc2c(CN(CC(O)COC(C)(C)C)CC3CCCO3)c(-c3ccccc3)nn2C)cc1 (stereo not drawn) | -7 | 0.81 |
| CNC(=O)NC(=O)CCN1CCN(Cc2ccc3c(c2)CCO3)CC1 | -7 | 1.25 |
| Cc1cc(-c2cc(S(=O)(=O)Nc3ccccc3)c(C)o2)[nH]n1 | -4 | 0.42 |
| Cc1cccc(C(=O)Nc2ccc(N3CCN(Cc4ccc(F)cc4)C3=O)nc2)c1 | -5 | 0.59 |
| C[C@@H]1C[C@H](O)CN(C(=O)Cc2ccc3cn[nH]c3c2)C1 | -18 | 2.81 |
| CC(=O)NC1CCC(Nc2ccc(CC(=O)N3CCc4ccccc43)cc2)CC1 (stereo not drawn) | -5 | 0.87 |
| Cc1cccc([C@@H](C)C(=O)NCC2(CF)CCOCC2)c1 | 2 | -0.2 |
| Cc1ccc(CS(=O)(=O)N2CCC(C(=O)Nc3ccc(C)cc3)CC2)cc1 | -13 | 2.36 |
| CCN1C(=O)CC(Nc2ccc3c(c2)NC(=O)C(C)O3)C1=O (stereo not drawn) | -2 | 0.37 |
| O=C(CC1(CN2Cc3ccccc3C2=O)CCCCC1)N[C@H](CO)Cc1ccccc1 | -18 | 2.22 |
| CC(C)c1nnc2n1CCN(C(=O)c1ccc3c(c1)N(C)CCO3)[C@H]2C | -14 | 1.55 |
| CCC[C@H]1CN(c2ncccc2F)C[C@@H]1NC(=O)C1CCOCC1 | -7 | 1.18 |
| COCCCNC(=O)Nc1c(C)cc(Br)cc1OC | -16 | 3.16 |
| O=C1C[C@@H](C(=O)Nc2ccc(F)c(F)c2)c2c(n(CCc3ccccc3)c(=O)[nH]c2=O)N1 | 30 | -3.41 |
| CC1CCCC(OCC(=O)NCc2ccccc2O)C1 (stereo not drawn) | -2 | 0.37 |
| O=C(Cc1ccccc1)n1nc(NCc2cccc(Cl)c2)nc1NCc1cccc(Cl)c1 | 6 | -0.8 |

| Compound | % Inhibition [%] | Z score |
| --- | --- | --- |
| Cc1nc(NCCNS(=O)(=O)c2cccs2)cc(-n2ccnc2C)n1 | 7 | -0.96 |
| CCOC(=O)c1nc([C@H](CC(C)C)NC(=O)COC)n[nH]1 | -33 | 3.87 |
| CC1=NO[C@](C)(C(=O)N2CCC(CNC(=O)c3nc4ccccn4c3F)CC2)C1 | 2 | -0.19 |
| CC(C)(C)C1CCC(CC(=O)NCc2n[nH]c(=O)[nH]2)CC1 (stereo not drawn) | -15 | 1.69 |
| COCCc1nc(-c2cnc(C3CC3)nc2)n(-c2ccc(F)cc2F)n1 | -11 | 1.36 |
| Cc1cc(C)c(NC(=O)Cn2nc3c(Oc4cccc(C)c4C)nc4ccccc4n3c2=O)c(C)c1 | 0 | 0.06 |
| Cc1nn(C)c(C)c1NC(=O)CN1CCCCC1C(C)O (stereo not drawn) | -6 | 0.78 |
| CN=C(NCc1ccccc1)N1CCCC1 | -7 | 1.01 |
| Cc1cc(NC(=O)N2CC(O)CC2c2ccccc2)nn1C1CCCCC1 (stereo not drawn) | -4 | 0.76 |
| CC(C)C[C@@H](CN(C)C)NC(=O)c1ccc(-c2cc[nH]n2)s1 | 0 | 0.04 |
| Cn1cncc1CC(=O)N[C@H]1COc2cccc(Cl)c21 | -8 | 1.18 |
| c1ccc(CCc2n[nH]c3c2CN(Cc2cccc4nonc24)CC3)cc1 | -1 | 0.11 |
| Cc1c(NC(=O)CN2CCN(S(=O)(=O)c3cccc(F)c3)CC2)c(=O)n(-c2ccccc2)n1C | -7 | 0.96 |
| O=C(NCC#CCOc1cccc(C(F)(F)F)c1)c1ccco1 | -11 | 2.28 |
| CN1c2cc(C(=O)Nc3ccc(Cl)cc3)ccc2C(=O)N2CCCCC[C@H]21 | 10 | -1.31 |
| Cc1ccc2c(C(=O)N3CCC(N(C)C)CC3)cc(-c3cncnc3)nc2c1C | 6 | -1.12 |
| CCN(CC(=O)O)C(=O)Cc1cc(C)ccc1C | -11 | 1 |
| O=C(Nc1ccc(N2CCCCCC2)cc1C(=O)O)c1ccc(Cl)cc1 | 37 | -5.42 |
| CNC(=O)c1ccc(C(=O)N2CCN(C(C)C)C(=O)C2)cn1 | 11 | -2.02 |
| COCCCn1nccc1-c1nc2ccc(F)cc2n1C | 0 | 0.04 |
| CN(Cc1ncon1)C(=O)[C@@H]1CCCN1c1ccccc1 | -8 | 1.12 |
